# In PubChem BioAssay AID504832 (National Center for Advancing Translational Sciences (NCATS), 2011):
# “And” between values parts separate entries of the source, which are not always exact repeats. Equal values may be shown once. The campaign covered roughly 310,000 compounds. About 18,000 (5.8%) were called active. Inconclusive means that the source gave no clear call. Such entries were picked first, then a sample of the others. The call rests on the fitted dose curve; in most records, active means well fitted inhibition curve with a large enough effect; inconclusive means small, poorly fitted or top-dose-only effect, or another doubt; inactive means no such curve, though single readings can be large or run the other way. Potencies beside an inconclusive call are fits to weak or partial responses and may not hold up.
# Test: Primary qHTS for delayed death inhibitors of the malarial parasite plastid, 48 hour incubation
# Details: P. falciparum luciferase growth in erythrocytes; series mostly up to 28.7 µM
# How it was run: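 Luciferase-expressing P. falciparum in infected erythrocytes (2% hematocrit, 0.1% parasitemia final) in RPMI 1640/0.5% Albumax were exposed to compound for 48 hours at 37 C, 5% CO2; growth read as luminescence.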
# Potency means the concentration at half of the fitted maximal effect; tags describe the fitted curve by direction and shape.
row,SMILES,Potency
1,COc1ccccc1CNC(=O)[C@@H]1CCCN1C(=O)C1CCN(S(=O)(=O)c2ccc(C)cc2)CC1,"inconclusive: 14.7 µM [inhibitor, partial curve, poor fit]"
2,O=C(NC(Cc1ccccc1)C(=O)O)/C(=C/c1ccc([N+](=O)[O-])cc1)NC(=O)c1ccccc1Br (stereo not drawn),inactive
3,Cc1nn(C)c(C)c1/C=N/NC(=O)CCn1cc([N+](=O)[O-])cn1,inactive
4,COc1cccc(NC(=O)CN(C)CC(=O)c2c(N)n(Cc3ccccc3)c(=O)n(C)c2=O)c1,"inconclusive: 8.28 µM [inhibitor, partial curve]"
5,CC(C)CNC(=O)C1CCN(c2ccc(S(=O)(=O)N3CCOCC3)cc2[N+](=O)[O-])CC1,"inconclusive: 3.29 µM [inhibitor, full curve]"
6,Cc1nn(-c2ccccc2[N+](=O)[O-])c(=O)c2ccccc12,inactive
7,O=C(N/N=C/c1ccco1)c1cc(-c2ccc(Cl)s2)[nH]n1,active: 9.28 µM
8,O=C(CCCOc1ccc(Cl)cc1Cl)N1CCN(c2ccccn2)CC1,"inconclusive: 18.5 µM [inhibitor, single point]"
9,Cc1onc(-c2ccccc2Cl)c1C(=O)OCC(=O)N1CCCc2ccccc21,active: 9.28 µM
10,O=C(Nc1nc2c(Br)cc(Br)cc2c(=O)s1)C1CCC1,active: 2.33 µM
11,Cc1noc(C)c1S(=O)(=O)N(Cc1ccccc1)C(C)C,"inconclusive: 3.7 µM [inhibitor, single point]"
12,COC(=O)C(Cc1ccc(N(CCCl)CCCl)cc1)N=Cc1ccccc1O (stereo not drawn),"inconclusive: 4.65 µM [inhibitor, partial curve, poor fit]"
13,O=P(C(Cl)Cl)(N1CCOCC1)N1CCOCC1,inactive
14,Cc1csc(=O)n1CC(=O)OCC(=O)Nc1ccccc1C(C)C,"inconclusive: 11.7 µM [inhibitor, single point]"
15,CCCc1nc(SCC(=O)NC2CC2)c2c(C)c(C)sc2n1,inactive
16,Clc1ccc(Cn2cc(/C=N/n3cnnc3)c3ccccc32)cc1,"inconclusive: 18.5 µM [inhibitor, single point]"
17,Cc1ccc(S(=O)(=O)N2CCOCC2)cc1C(=O)Nc1nc2ccccc2[nH]1,"inconclusive: 18.5 µM [inhibitor, single point]"
18,Cc1ccc(CSC2=NCCN2C(=O)C(C)Oc2ccccc2)cc1 (stereo not drawn),"inconclusive: 0.0738 µM [inhibitor, full curve, poor fit]"
19,CCCCn1c(N)c(N(CCC(C)C)C(=O)c2ccccc2-n2cnnn2)c(=O)[nH]c1=O,"inconclusive: 13.1 µM [inhibitor, single point]"
20,Cc1ccc(/C=N/NC(=O)c2ccc3nc[nH]c3c2)o1,"inconclusive: 0.117 µM [inhibitor, full curve, poor fit]"
21,Cc1ccccc1-n1c(SCC(=O)Nc2ccccc2)nc2nc3c(cc2c1=O)CCCC3,"inconclusive: 1.31 µM [inhibitor, partial curve]"
22,C=CCn1c(SCc2nc3ccccc3c(=O)[nH]2)nc2scc(C3CC3)c2c1=O,"inconclusive: 14.7 µM [inhibitor, partial curve, poor fit]"
23,O=C(CSc1ccc(-c2ccccn2)nn1)Nc1ccc(F)c(F)c1,inactive

row,SMILES,Potency
1,O=C(CCNS(=O)(=O)c1ccc(Br)cc1)NC1CCCCC1,"inconclusive: 7.38 µM [inhibitor, partial curve]"
2,Cc1noc(C)c1COc1ccccc1C(=O)NNC(=O)c1ccccc1F,"inconclusive: 18.5 µM [inhibitor, single point]"
3,CCC(C)(C)NC(=O)CN(C(=O)C(=O)Nc1ccc2c(c1)OCCO2)C(C)(C)CC,"inconclusive: 13.1 µM [inhibitor, single point]"
4,O=C(COC(=O)c1cccnc1Cl)NCc1ccco1,inactive
5,CC(C)OC(=O)Cc1nc2sc(-c3ccccc3)cc2c(=O)[nH]1,inactive
6,O=[N+]([O-])c1cc([N+](=O)[O-])c(Oc2ccc(F)cc2F)cc1NN1CCCCC1,inactive
7,COc1ccc(-c2csc(NC(=O)CN3C(=O)C4CCCCC4C3=O)n2)cc1OC (stereo not drawn),inactive
8,Cc1ccsc1C(=O)N1CC=C(c2ccccc2)CC1,"inconclusive: 18.5 µM [inhibitor, single point]"
9,COc1ccc(NC(C)=O)cc1NC(=O)CN1CCN(C2c3ccccc3-c3ccccc32)CC1,"inconclusive: 9.28 µM [inhibitor, partial curve]"
10,CCOc1cc(C2C(C(=O)OC(C)C)=C(C)NC3=C2C(=O)CCC3)cc([N+](=O)[O-])c1O (stereo not drawn),"inconclusive: 8.28 µM [inhibitor, partial curve, poor fit]"
11,CCCCCCn1c(CN2CCN(C)CC2)nc2c1c(=O)n(C)c(=O)n2C,"inconclusive: 0.0586 µM [inhibitor, full curve, poor fit]"
12,Cc1cc(=O)oc2c(CN(CC(C)C)CC(C)C)c(O)ccc12,"inconclusive: 18.5 µM [inhibitor, partial curve, poor fit]"
13,O=C(CCn1nc(-c2ccccc2)c2ccccc2c1=O)NCC1CCCO1 (stereo not drawn),"inconclusive: 9.28 µM [inhibitor, single point]"
14,Cc1cccc(N2CCN(C(=O)c3c(-c4ccccc4)noc3C)CC2)c1C,"inconclusive: 18.5 µM [inhibitor, single point]"
15,CCN(CC(=O)NC1CCCC1)S(=O)(=O)c1ccc(C)cc1,"inconclusive: 18.5 µM [inhibitor, single point]"
16,COC(=O)C1=C(c2ccc(F)cc2OCc2ccccc2)C[C@@H]2CC[C@H]1N2C(=O)NCc1ccc(F)cc1,active: 10.4 µM
17,COc1cccc(/C=C/C(=O)OCC(=O)Nc2cccc(S(=O)(=O)N3CCOCC3)c2)c1OC,inactive
18,CCN1C(=NCc2ccco2)N[C@@H](c2cccc(F)c2)C(C(=O)OC)=C1C,"inconclusive: 2.6 nM [inhibitor, full curve, poor fit] and inconclusive: 13.1 µM [inhibitor, partial curve, poor fit]"
19,COc1ccccc1C(=O)NCCSCc1ccccc1Cl,active: 7.38 µM
20,Cc1ccc(C)c(NC(=O)COC(=O)COc2cccc3c2OC(C)(C)C3)c1,"inconclusive: 14.7 µM [inhibitor, partial curve, poor fit]"
21,COc1ccccc1OC(C)C(=O)N1CCc2ccccc21 (stereo not drawn),active: 10.4 µM
22,COc1ccc2[nH]c(CN3CCN(CC(C)C)C(CCO)C3)c(C)c2c1 (stereo not drawn),"inconclusive: 11.7 µM [inhibitor, partial curve, poor fit]"
23,COc1cccc(OC)c1C(=O)Nc1ccc(NC(=O)c2ccco2)cc1,inactive

row,SMILES,Potency
1,CN(C[C@H](c1ccccc1)N(C[C@H](Cc1ccccc1)N(CCc1ccccc1)N=O)N=O)N=O,"inconclusive: 11.7 µM [inhibitor, partial curve, poor fit]"
2,CN(Cc1nccn1C)C(=O)c1cc(COc2cccc(C(F)(F)F)c2)on1,inactive
3,Cc1cccc(C2=NNC(=O)C(c3ccc(Cl)cc3)C2)c1 (stereo not drawn),"inconclusive: 16.5 µM [inhibitor, single point]"
4,CCc1cccc2c1NC(=O)[C@]21[C@@H]2C(=O)N(Cc3ccccc3)C(=O)[C@@H]2[C@@H]2CCCN21,active: 9.28 µM
5,COc1ccc(S(=O)(=O)N(C)CC(=O)Nc2ccc3c(c2)OCO3)cc1,inactive
6,COc1ccc(OCC(=O)Nc2cc(-c3nn(C)c(=O)c4ccccc34)ccc2N2CCOCC2)cc1,"inconclusive: 3.29 µM [inhibitor, full curve]"
7,CCOc1ccc(CCNC(=O)CCc2c(C)nc3ncnn3c2C)cc1OCC,"inconclusive: 0.0329 µM [inhibitor, full curve, poor fit]"
8,COc1cccc(NC(=O)CN(C)C(=O)c2ccccc2OCC(=O)Nc2cccc(C(F)(F)F)c2)c1,inactive
9,O=C1SC(SC(=Nc2ccccc2)Nc2ccccc2)C(=O)N1c1ccccc1 (stereo not drawn),inactive
10,C=CCn1c(SCC(=O)NCc2ccco2)nnc1-c1ccc2ccccc2n1,"inconclusive: 10.4 µM [inhibitor, single point]"
11,CCn1ccnc1CN1CCCC(C(=O)c2ccc3cc(OC)ccc3c2)C1 (stereo not drawn),active: 2.94 µM
12,COc1ccc(C(c2nnnn2Cc2ccccc2)N2CCN(C(=O)c3ccco3)CC2)cc1 (stereo not drawn),"inconclusive: 1.31 µM [inhibitor, partial curve, poor fit]"
13,O=C(NC(=S)NCCc1ccccc1)c1cccc(Cl)c1,inactive
14,O=C(NCCO)c1cccc(Nc2nc(-c3ccccc3)c3cc(Cl)ccc3n2)c1,"inconclusive: 18.5 µM [inhibitor, single point]"
15,COC(=O)C1=C(c2cccc(OCc3ccccc3)c2)C[C@@H]2CC[C@H]1N2C(=O)NCc1ccccc1OC,active: 7.38 µM
16,Cc1ccc(S(=O)(=O)N[C@H](C(=O)N2CCC(C(=O)N[C@@H](CCC(N)=O)C(=O)O)CC2)C(C)C)cc1,inactive
17,CCCn1c(-c2cc(OC)c(OC)c(OC)c2)nc2c1c(=O)[nH]c(=O)n2Cc1ccccc1,active: 9.28 µM
18,O=C(CSc1nc(Nc2ccccc2)nc(N2CCOCC2)n1)Nc1ccc2c(c1)OCCO2,active: 9.28 µM
19,Cc1ccc(C(=O)C[n+]2cc(-c3ccccc3)n3c2CCCCC3)cc1,active: 1.85 µM
20,COc1ccc(/C=N/Nc2nnc(-c3ccccc3)c(=O)[nH]2)cc1,inactive
21,COc1ccc(NC(=O)COc2cccc3c2OC(C)(C)C3)c(OC)c1,"inconclusive: 0.586 µM [inhibitor, full curve, poor fit]"
22,COc1ccccc1N1CCN(C(=O)c2c(-c3ccccc3Cl)noc2C)CC1,"inconclusive: 11.7 µM [inhibitor, single point]"
